# From the supplement of paper PMC8728848
# Some of the results follow.
# B1: HPA (Helix pomatia), Q2F1K8 (protein)
# chain: MQAFYSGLLLLCVVAFAAAQRVQSGKIDCGNDAGWAKVPSDDPGRDNTRELAKNITFASPYCRPPVVLLSITQLDVEQSQNLRVIARLYSVSPTGFKASCYTWHNTKVYSMSISWISIENY
# Columns and labels:
# Test in all cases: glycan array binding signal (z-score within array); higher = stronger binding
# Conditions in all cases: glycan notation: IUPAC condensed, linker removed
# [1] = target: Glc(a1-4)Glc(a1-4)Glc(a1-4)Glc
# In short: (§1)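 Glycan array binding is given as a within-array Z-score, which can be read as non-binding when negative. The arrays, 3228 of them, came from the Consortium for Functional Glycomics database and were retained only where the protein sequence was available. Z-scores were averaged across arrays of the same protein sequence at different concentrations or buffers and across linkers.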
# [2] = target: Glc(a1-6)Glc(a1-6)Glc
# In short: as §1
# [3] = target: Glc(a1-6)Glc(a1-6)Glc(a1-6)Glc
# In short: as §1
# [4] = target: Glc(b1-4)Glc
# In short: as §1
# [5] = target: Glc(b1-6)Glc
# In short: as §1
# [6] = target: GlcA(b1-3)Gal
# In short: as §1
# [7] = target: GlcA(b1-3)GlcNAc
# In short: as §1
# [8] = target: GlcA(b1-6)Gal
# In short: as §1
# [9] = target: GlcA3S(b1-3)Gal(b1-4)GlcNAc(b1-2)Man
# In short: as §1
# [10] = target: GlcA3S(b1-3)Gal(b1-4)GlcNAc(b1-3)Gal(b1-4)Glc
# In short: as §1
# [11] = target: GlcNAc(a1-3)Gal(b1-4)GlcNAc
# In short: as §1
# [12] = target: GlcNAc(a1-4)Gal(b1-3)GlcNAc
# In short: as §1
# [13] = target: GlcNAc(a1-4)Gal(b1-4)GalNAc
# In short: as §1
# [14] = target: GlcNAc(a1-4)Gal(b1-4)GlcNAc
# In short: as §1
# [15] = target: GlcNAc(a1-4)Gal(b1-4)GlcNAc(b1-3)Gal(b1-4)Glc
# In short: as §1
# [16] = target: GlcNAc(a1-4)Gal(b1-4)GlcNAc(b1-3)Gal(b1-4)GlcNAc
# In short: as §1
# [17] = target: GlcNAc(a1-4)Gal(b1-4)GlcNAc(b1-3)Gal(b1-4)GlcNAc(b1-3)Gal(b1-4)GlcNAc
# In short: as §1
# [18] = target: GlcNAc(a1-4)Gal(b1-4)GlcNAc(b1-3)Gal(b1-4)[Fuc(a1-3)]GlcNAc(b1-3)Gal(b1-4)[Fuc(a1-3)]GlcNAc
# In short: as §1
# [19] = target: GlcNAc(a1-6)Gal(b1-4)GlcNAc
# In short: as §1
# [20] = target: GlcNAc(b1-2)Gal(b1-3)GalNAc
# In short: as §1
# [21] = target: GlcNAc(b1-2)Man(a1-3)[GlcNAc(b1-2)Man(a1-6)]Man(b1-4)GlcNAc(b1-4)GlcNAc
# In short: as §1
# [22] = target: GlcNAc(b1-2)Man(a1-3)[GlcNAc(b1-2)Man(a1-6)]Man(b1-4)GlcNAc(b1-4)[Fuc(a1-6)]GlcNAc
# In short: as §1
# [23] = target: GlcNAc(b1-2)Man(a1-3)[GlcNAc(b1-4)][GlcNAc(b1-2)Man(a1-6)]Man(b1-4)GlcNAc(b1-4)GlcNAc
# In short: as §1
# [24] = target: GlcNAc(b1-2)Man(a1-3)[GlcNAc(b1-4)][GlcNAc(b1-2)Man(a1-6)]Man(b1-4)GlcNAc(b1-4)[Fuc(a1-6)]GlcNAc
# In short: as §1
# [25] = target: GlcNAc(b1-2)[GlcNAc(b1-4)]Man(a1-3)[GlcNAc(b1-2)Man(a1-6)]Man(b1-4)GlcNAc(b1-4)GlcNAc
# In short: as §1
# [26] = target: GlcNAc(b1-2)[GlcNAc(b1-4)]Man(a1-3)[GlcNAc(b1-4)][GlcNAc(b1-2)Man(a1-6)]Man(b1-4)GlcNAc(b1-4)GlcNAc
# In short: as §1
# [27] = target: GlcNAc(b1-2)[GlcNAc(b1-4)]Man(a1-3)[GlcNAc(b1-4)][GlcNAc(b1-2)[GlcNAc(b1-6)]Man(a1-6)]Man(b1-4)GlcNAc(b1-4)GlcNAc
# In short: as §1
# [28] = target: GlcNAc(b1-2)[GlcNAc(b1-4)]Man(a1-3)[GlcNAc(b1-4)][GlcNAc(b1-2)[GlcNAc(b1-6)]Man(a1-6)]Man(b1-4)GlcNAc(b1-4)[Fuc(a1-6)]GlcNAc
# In short: as §1
# [29] = target: GlcNAc(b1-2)[GlcNAc(b1-6)]Man(a1-6)[GlcNAc(b1-2)Man(a1-3)]Man(b1-4)GlcNAc(b1-4)GlcNAc
# In short: as §1
# [30] = target: GlcNAc(b1-2)[GlcNAc(b1-6)]Man(a1-6)[GlcNAc(b1-2)Man(a1-3)]Man(b1-4)GlcNAc(b1-4)[Fuc(a1-6)]GlcNAc
# In short: as §1
# [31] = target: GlcNAc(b1-2)[GlcNAc(b1-6)]Man(a1-6)[GlcNAc(b1-4)][GlcNAc(b1-2)Man(a1-3)]Man(b1-4)GlcNAc(b1-4)GlcNAc
# In short: as §1
# [32] = target: GlcNAc(b1-3)Fuc
# In short: as §1
# [33] = target: GlcNAc(b1-3)Gal
# In short: as §1
# [34] = target: GlcNAc(b1-3)Gal(b1-3)GalNAc
# In short: as §1
# [35] = target: GlcNAc(b1-3)Gal(b1-4)Glc
# In short: as §1
# [36] = target: GlcNAc(b1-3)Gal(b1-4)GlcNAc
# In short: as §1
# [37] = target: GlcNAc(b1-3)Gal(b1-4)GlcNAc(b1-2)Man(a1-3)[GlcNAc(b1-3)Gal(b1-4)GlcNAc(b1-2)Man(a1-6)]Man(b1-4)GlcNAc(b1-4)GlcNAc
# In short: as §1
# [38] = target: GlcNAc(b1-3)Gal(b1-4)GlcNAc(b1-2)Man(a1-3)[GlcNAc(b1-3)Gal(b1-4)GlcNAc(b1-2)Man(a1-6)]Man(b1-4)GlcNAc(b1-4)[Fuc(a1-6)]GlcNAc
# In short: as §1
# [39] = target: GlcNAc(b1-3)Gal(b1-4)GlcNAc(b1-2)[GlcNAc(b1-3)Gal(b1-4)GlcNAc(b1-6)]Man(a1-6)[GlcNAc(b1-3)Gal(b1-4)GlcNAc(b1-2)Man(a1-3)]Man(b1-4)GlcNAc(b1-4)GlcNAc
# In short: as §1
# [40] = target: GlcNAc(b1-3)Gal(b1-4)GlcNAc(b1-3)Gal(b1-4)GlcNAc
# In short: as §1
# [41] = target: GlcNAc(b1-3)Gal(b1-4)GlcNAc(b1-3)Gal(b1-4)GlcNAc(b1-2)Man(a1-3)[GlcNAc(b1-3)Gal(b1-4)GlcNAc(b1-3)Gal(b1-4)GlcNAc(b1-2)Man(a1-6)]Man(b1-4)GlcNAc(b1-4)GlcNAc
# In short: as §1
# [42] = target: GlcNAc(b1-3)Gal(b1-4)GlcNAc(b1-3)Gal(b1-4)GlcNAc(b1-2)Man(a1-3)[GlcNAc(b1-3)Gal(b1-4)GlcNAc(b1-3)Gal(b1-4)GlcNAc(b1-2)Man(a1-6)]Man(b1-4)GlcNAc(b1-4)[Fuc(a1-6)]GlcNAc
# In short: as §1
# [43] = target: GlcNAc(b1-3)Gal(b1-4)GlcNAc(b1-3)Gal(b1-4)GlcNAc(b1-2)[GlcNAc(b1-3)Gal(b1-4)GlcNAc(b1-3)Gal(b1-4)GlcNAc(b1-6)]Man(a1-6)[GlcNAc(b1-3)Gal(b1-4)GlcNAc(b1-3)Gal(b1-4)GlcNAc(b1-2)Man(a1-3)]Man(b1-4)GlcNAc(b1-4)[Fuc(a1-6)]GlcNAc
# In short: as §1
# [44] = target: GlcNAc(b1-3)Gal(b1-4)GlcNAc(b1-3)Gal(b1-4)GlcNAc(b1-3)Gal(b1-4)GlcNAc(b1-2)Man(a1-3)[GlcNAc(b1-3)Gal(b1-4)GlcNAc(b1-3)Gal(b1-4)GlcNAc(b1-3)Gal(b1-4)GlcNAc(b1-2)Man(a1-6)]Man(b1-4)GlcNAc(b1-4)GlcNAc
# In short: as §1
# [45] = target: GlcNAc(b1-3)Gal(b1-4)GlcNAc(b1-3)Gal(b1-4)GlcNAc(b1-3)Gal(b1-4)GlcNAc(b1-2)Man(a1-3)[GlcNAc(b1-3)Gal(b1-4)GlcNAc(b1-3)Gal(b1-4)GlcNAc(b1-3)Gal(b1-4)GlcNAc(b1-2)Man(a1-6)]Man(b1-4)GlcNAc(b1-4)[Fuc(a1-6)]GlcNAc
# In short: as §1
binder,measurement,setting,value
B1,glycan array binding signal (z-score),[1],-0.19
same,glycan array binding signal (z-score),[2],-0.247
same,glycan array binding signal (z-score),[3],-0.102
same,glycan array binding signal (z-score),[4],-0.253
same,glycan array binding signal (z-score),[5],-0.179
same,glycan array binding signal (z-score),[6],-0.313
same,glycan array binding signal (z-score),[7],-0.243
same,glycan array binding signal (z-score),[8],-0.158
same,glycan array binding signal (z-score),[9],-0.426
same,glycan array binding signal (z-score),[10],-0.351
same,glycan array binding signal (z-score),[11],2.04
same,glycan array binding signal (z-score),[12],0.871
same,glycan array binding signal (z-score),[13],1.29
same,glycan array binding signal (z-score),[14],0.726
same,glycan array binding signal (z-score),[15],0.93
same,glycan array binding signal (z-score),[16],1.34
same,glycan array binding signal (z-score),[17],1.89
same,glycan array binding signal (z-score),[18],1.6
same,glycan array binding signal (z-score),[19],0.592
same,glycan array binding signal (z-score),[20],0.071
same,glycan array binding signal (z-score),[21],-0.24
same,glycan array binding signal (z-score),[22],0.066
same,glycan array binding signal (z-score),[23],-0.403
same,glycan array binding signal (z-score),[24],-0.214
same,glycan array binding signal (z-score),[25],-0.232
same,glycan array binding signal (z-score),[26],-0.249
same,glycan array binding signal (z-score),[27],-0.326
same,glycan array binding signal (z-score),[28],-0.295
same,glycan array binding signal (z-score),[29],-0.266
same,glycan array binding signal (z-score),[30],0.167
same,glycan array binding signal (z-score),[31],-0.301
same,glycan array binding signal (z-score),[32],-0.157
same,glycan array binding signal (z-score),[33],-0.298
same,glycan array binding signal (z-score),[34],0.4
same,glycan array binding signal (z-score),[35],-0.151
same,glycan array binding signal (z-score),[36],-0.297
same,glycan array binding signal (z-score),[37],-0.103
same,glycan array binding signal (z-score),[38],0
same,glycan array binding signal (z-score),[39],-0.009
same,glycan array binding signal (z-score),[40],-0.292
same,glycan array binding signal (z-score),[41],0.308
same,glycan array binding signal (z-score),[42],-0.019
same,glycan array binding signal (z-score),[43],0.324
same,glycan array binding signal (z-score),[44],-0.189
same,glycan array binding signal (z-score),[45],-0.112
